Measured values from US11873288B2, “Inhibitors for soluble epoxide hydrolase (sEH) and fatty acid amide hydrolase (FAAH)” (The Regents of the University of California, priority 2016, dated 2024).

How the values were obtained:
sEH [1] = molecular target: T1, sEH (Mus musculus, UniProt P34914); conditions: read-out: sEH IC50, Mouse
T1 sequence (P34914 1-554): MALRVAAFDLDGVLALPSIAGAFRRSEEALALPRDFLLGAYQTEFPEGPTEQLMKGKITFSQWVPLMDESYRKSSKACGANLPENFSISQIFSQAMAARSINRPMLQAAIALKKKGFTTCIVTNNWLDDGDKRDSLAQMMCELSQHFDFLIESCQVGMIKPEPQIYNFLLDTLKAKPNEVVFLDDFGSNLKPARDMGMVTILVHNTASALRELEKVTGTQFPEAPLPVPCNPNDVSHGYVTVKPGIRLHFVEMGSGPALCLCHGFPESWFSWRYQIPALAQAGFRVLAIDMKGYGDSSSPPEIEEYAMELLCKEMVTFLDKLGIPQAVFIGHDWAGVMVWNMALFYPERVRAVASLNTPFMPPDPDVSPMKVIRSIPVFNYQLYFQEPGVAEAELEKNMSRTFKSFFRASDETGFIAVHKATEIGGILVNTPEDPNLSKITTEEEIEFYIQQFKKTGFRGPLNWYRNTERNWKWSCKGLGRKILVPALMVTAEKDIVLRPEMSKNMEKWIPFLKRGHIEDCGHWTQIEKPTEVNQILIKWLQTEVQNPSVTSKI

sEH [2] = molecular target: T2, sEH (Rattus norvegicus, UniProt P80299); conditions: read-out: sEH IC50, Rat
T2 sequence (P80299 1-554): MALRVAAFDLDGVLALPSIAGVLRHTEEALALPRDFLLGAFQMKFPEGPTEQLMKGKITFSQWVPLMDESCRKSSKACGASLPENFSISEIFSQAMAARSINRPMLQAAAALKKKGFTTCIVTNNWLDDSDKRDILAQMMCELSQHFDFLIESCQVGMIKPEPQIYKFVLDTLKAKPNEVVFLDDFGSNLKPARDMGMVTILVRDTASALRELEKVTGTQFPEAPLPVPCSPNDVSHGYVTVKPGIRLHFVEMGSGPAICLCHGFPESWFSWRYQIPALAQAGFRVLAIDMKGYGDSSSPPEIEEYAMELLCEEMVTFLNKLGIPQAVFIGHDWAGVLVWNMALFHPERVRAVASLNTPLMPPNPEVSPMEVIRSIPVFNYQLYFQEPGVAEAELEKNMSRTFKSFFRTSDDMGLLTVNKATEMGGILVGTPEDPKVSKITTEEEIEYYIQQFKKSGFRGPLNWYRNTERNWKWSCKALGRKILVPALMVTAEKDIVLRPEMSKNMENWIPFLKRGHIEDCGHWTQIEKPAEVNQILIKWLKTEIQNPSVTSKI

Compound: O=C(Nc1ccc(OC(F)(F)F)cc1)N[C@H]1CC[C@H](Oc2ccc(C(=O)OCc3ccccc3)cc2)CC1 [Compound A-14, benzyl 4-((trans-4-(3-(4-(trifluoromethoxy)phenyl)ureido)cyclohexyl)oxy) benzoate]
- IC50 (sEH [1]): 2.1 nM
- IC50 (sEH [2]): 1.6 nM
